Measured values reported in PubChem BioAssay AID1671188 (National Center for Advancing Translational Sciences (NCATS), 2021).
Among all 100,000 compounds or so, about 250 (0.25%) were called active. The shares of active, inactive and inconclusive entries below differ from those in the screen. Calls come from the whole dose curve; as a rule, active = well fitted inhibition curve with a large enough effect; inconclusive = small, poorly fitted or top-dose-only effect; inactive = flat fitted curve, though single readings scatter. Potencies of inconclusive entries are left out as doubtful fits.

Molecular target: Alanine aminotransferase 2 (Homo sapiens) (UniProt Q8TD30)
Assay: Primary qHTS assay for inhibitors of Glutamate pyruvate transaminase 2 (GPT2); note: nearly all actives have a fitted effect of over 60% in size
Settings: Recombinant GPT2, coupled pyruvate oxidase/HRP Amplex Red fluorescence; activity change, negative = inhibition: at 57.7 µM (top of the series) unless noted; series mostly up to 57.7 µM
How it was run: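 Fluorescence read-out: pyruvate from GPT2 turnover coupled to pyruvate oxidase, HRP and Amplex Red (0.2mM ThPP, 0.2U/mL PO and HRP, 50uM Amplex final). Substrates 250uM a-KG, 2mM L-alanine; enzyme 10ng/uL; 30 min RT.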
% is set by controls: 0 for no effect and ±100 for the full control effect; potency is the fitted concentration of half-maximal effect; tags give direction and shape of the fitted curve.

Sequence of UniProt Q8TD30 (Q8TD30 whole entry, looked up): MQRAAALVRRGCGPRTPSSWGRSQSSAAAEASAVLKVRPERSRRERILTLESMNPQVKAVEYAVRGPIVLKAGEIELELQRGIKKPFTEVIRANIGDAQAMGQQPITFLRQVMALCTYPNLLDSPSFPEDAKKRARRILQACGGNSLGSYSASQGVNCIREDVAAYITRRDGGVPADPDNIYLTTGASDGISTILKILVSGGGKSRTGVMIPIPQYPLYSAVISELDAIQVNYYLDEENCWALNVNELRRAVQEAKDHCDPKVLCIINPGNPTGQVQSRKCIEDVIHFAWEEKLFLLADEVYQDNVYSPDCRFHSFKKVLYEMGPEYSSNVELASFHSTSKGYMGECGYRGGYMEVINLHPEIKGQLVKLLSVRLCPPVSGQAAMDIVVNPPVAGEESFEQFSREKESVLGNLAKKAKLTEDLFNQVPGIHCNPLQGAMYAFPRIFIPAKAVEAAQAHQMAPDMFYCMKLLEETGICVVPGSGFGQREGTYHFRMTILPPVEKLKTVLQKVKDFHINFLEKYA

SMILES	Potency	activity change, negative = inhibition	outcome
O=C(CN1CC2CC(C1)[C@H]1CCCC(=O)N1C2)NCCC1=CCCCC1 (some centres undefined)	inconclusive [inhibitor, full curve, poor fit]	–	–
CCS(=O)(=O)N1CCC(N2C(=O)C(OCC3CC3)C23CCCCC3)CC1 (centres undefined)	inconclusive [inhibitor, single point]	–	–
C=C[C@H]1[C@H](O[C@@H]2O[C@H](CO)[C@@H](O)[C@H](O)[C@H]2O)OC=C(C(=O)OC)[C@H]1C[C@@H]1c2cc(O)c(O)cc2CCN1C(C)=O	active: 3.16 µM	–	–
CCCCCC=CCC=CCCCCCCCC(=O)OCC	inconclusive [inhibitor, partial curve, poor fit]	–	–
Cc1ccc(C(=O)N2CCN(C(=O)c3nnn4c3COC(c3ccc(Cl)cc3)C4)CC2)cc1F (centres undefined)	–	inactive: -21.1%	–
COc1ccccc1-n1c(=O)c(C(=O)NCC(F)F)nc2cccnc21	inconclusive [inhibitor, partial curve]	–	–
O=C(O)CCc1cc2n(n1)CCN(C(=O)c1ccccc1-n1cccc1)C2	inconclusive [inhibitor, single point]	–	–
CCNC(=O)[C@@H]1C[C@H](N)CN1C(=O)CCn1c(=O)oc2ccc(C)cc21	inconclusive [inhibitor, single point]	–	–
COC[C@@H]1CN(C(=O)Cn2ccc(C)n2)C[C@H]1c1ccccn1	inconclusive [inhibitor, single point]	–	–
CC(CC(C)O[C@@H]1O[C@H](CO)[C@@H](O)[C@H](O)[C@H]1O)OC(=O)/C=C/c1ccc(O)cc1 (some centres undefined)	inconclusive [inhibitor, single point]	–	–
Cn1c(CNC(=O)C2Cn3cccc3C(=O)N2Cc2ccccc2)nc2ccccc21 (centres undefined)	inconclusive [inhibitor, partial curve, poor fit]	–	–
COC(=O)CNC(=O)[C@@H]1CCCN1c1nccc(Nc2ccccc2OC)n1	inconclusive [inhibitor, partial curve]	–	–
Cc1noc([C@@H]2CC(F)(F)CN2C(=O)c2ocnc2C)n1	–	inactive: 1.28%	–
COc1ccccc1-c1cn2c(n1)CO[C@@H](CNC1CCOCC1)C2	inconclusive [inhibitor, single point]	–	–
COc1cccc(-c2cccc(C(=O)N3CCCC3C(=O)NCC(F)F)c2)c1 (centres undefined)	–	inactive: 3.13%	–
COc1ccccc1-c1cc(NCC2CCOCC2)c2onc(C)c2n1	–	inactive: -0.661% [at 88.5 µM]	–
O=C(c1cc(Cl)ccc1F)N1CCN(c2cc(C(F)(F)F)ncn2)CC1	–	inactive: 2.26%	–
CCn1ncc(N2CCC(NC(=O)c3cccc(OC)c3OC)CC2)cc1=O	–	inactive: -0.0641%	–
CC(=O)Nc1ccc(S(=O)(=O)N[C@H]2CO[C@H]3[C@@H]2OC[C@H]3OC(=O)Nc2ccc(C(C)=O)cc2)cc1	inconclusive [inhibitor, single point]	–	–
CC1(C(=O)NCCCn2ccnc2)COCc2cnc(Nc3ccccc3)nc21 (centres undefined)	inconclusive [inhibitor, single point]	–	–
CN1C(=O)C2(CCN(Cc3ccnn3C)C2)c2ccccc21 (centres undefined)	–	–	inactive [at 88.5 µM]
O=C(NCCc1ccccc1)N1CCC(c2noc(COc3ccc(F)cc3)n2)C1 (centres undefined)	inconclusive [inhibitor, single point]	–	–

SMILES	Potency	activity change, negative = inhibition	outcome
Cn1cc(Nc2ccc(Cl)cc2)c2nc(CN3CC[S+](=O)([O-])CC3)cn2c1=O	inconclusive [inhibitor, single point]	–	–
COc1cc2c(cc1OC)C(CNC(=O)CC(C)C)N(C(=O)NC(C)C)CC2 (centres undefined)	inconclusive [inhibitor, single point]	–	–
COc1ccc(CN2CCNc3cnc(Nc4ccccc4)cc3C2)cn1	inconclusive [inhibitor, full curve, poor fit]	–	–
COc1ccc(-c2cccc(CN3CCCC(C)(NC(C)=O)C3)c2)cc1OC (centres undefined)	–	inactive: -8.99% [at 88.5 µM]	–
Cc1ccccc1CN1CCCC2(Cc3ccccc3CNC2=O)C1 (centres undefined)	–	inactive: 1.62%	–
Cc1ccc(C(=O)N2CCC3(CC2)NC(=O)N(c2ccc(F)cc2)N3)cc1	inconclusive [inhibitor, single point]	–	–
C=CCOC(=O)Nc1nc2c(s1)C[C@@H]1[C@](C)(CO)[C@H](O)CC[C@@]1(C)[C@@H]2CC(=O)NC1CCCCC1	inconclusive [inhibitor, partial curve, poor fit]	–	–
CCO[C@H]1CN(C(=O)CSc2ccc(Cl)cc2)C[C@@H]1O	inconclusive [inhibitor, single point]	–	–
CC(=O)NCC(=O)NCC1CCN(c2cc(-c3ccc(Cl)cc3)[nH]n2)CC1	inconclusive [inhibitor, single point]	–	–
CN(C)C[C@@H]1CN(c2ccncn2)C[C@H]1NS(=O)(=O)Cc1cccc(F)c1	inconclusive [inhibitor, single point]	–	–
CCN(Cc1ccccn1)C(=O)c1coc(COc2ccc3c(c2)OCO3)n1	inconclusive [inhibitor, partial curve, poor fit]	–	–
O=C(Nc1ccc([C@@H](O)[C@H]2COCC(=O)N2CC2CC2)cc1)C1CCCC1	–	inactive: 3.52% [at 88.5 µM]	–
CCN1C(=O)CCN(C(=O)c2cccc(C#N)c2)CC12CCOCC2	inconclusive [inhibitor, single point]	–	–
O=C(O)c1ccc(CN2CCOC[C@H]2c2ncc(-c3ccc(F)cc3)[nH]2)cc1	–	–	inactive [at 88.5 µM]
CCc1nc(-c2c3n(c(=O)n(Cc4ccc(OC(F)(F)F)cc4)c2=O)CCCC3)no1	inconclusive [inhibitor, full curve, poor fit]	–	–
O=C(NC1CCN(c2cc(-c3ccc(F)cc3)[nH]n2)C1)c1cccc(Cl)c1 (centres undefined)	inconclusive [inhibitor, partial curve, poor fit]	–	–
CN1CCN(c2nc3c(c(=O)[nH]2)CCN(Cc2ccc4[nH]ccc4c2)CC3)CC1	–	inactive: 2.73%	–
C[C@@H]1C(=O)O[C@H]2[C@H]1CC[C@@]1(C)Cc3sc(NC(=O)c4ccncc4)nc3[C@@H](C)[C@H]21	inconclusive [inhibitor, single point]	–	–
Cc1cnn(CCC(=O)N[C@@H]2CN(Cc3ccccc3)C[C@H]2CO)c1	inconclusive [inhibitor, single point]	–	–
O=C1NCCCCCCN(Cc2cccc3[nH]ccc23)[C@H]2CCC[C@@H]12	inconclusive [inhibitor, single point]	–	–
Cc1ccc(-c2cc(C(=O)NCCc3ccc(F)cc3)c3cnn(C)c3n2)cc1	inconclusive [inhibitor, single point]	–	–
Cc1oc2c(c1C(=O)N1CCOCC1)CN(C(=O)c1ccnn1C)CC2	inconclusive [inhibitor, partial curve]	–	–

SMILES	Potency	activity change, negative = inhibition	outcome
O=C(NC1CCN(c2cn[nH]c(=O)c2)CC1)C1CCC1	inconclusive [inhibitor, single point]	–	–
Cc1cc(C(F)(F)F)nn1CC(=O)N1CCc2nn(CC3CC3)c(=O)n2CC1	–	–	inactive
COc1ccc(NC2CCCN(CC(=O)Nc3ccc(C)cn3)C2)cc1 (centres undefined)	inconclusive [inhibitor, partial curve, poor fit]	–	–
CCOC(=O)C(C)Oc1cccc2c(=O)n(CC(=O)Nc3ccc4c(c3)OCCO4)ccc12 (centres undefined)	inconclusive [inhibitor, single point]	–	–
O=C1NC2(Cc3ccccc31)CN(CC1CCCC1)C2	inconclusive [inhibitor, single point]	–	–
CC(=O)N1CCC(O)(c2csc(CN3CCN(C)CC3)n2)CC1	–	inactive: -8.67% [at 88.5 µM]	–
COc1ccc(CN2CCCC23Cc2ccccc2N([S+](C)(=O)[O-])C3)cc1 (centres undefined)	–	inactive: -0.564%	–
O=C(CC(c1ccccc1)c1ccc2c(c1)OCO2)N1CCSCC1 (centres undefined)	–	inactive: -2.03%	–
CC1Oc2ccc(NC(=O)Cc3ccc(F)cc3)cc2CN(Cc2cc(F)cc(F)c2)C1=O (centres undefined)	inconclusive [inhibitor, full curve, poor fit]	–	–
COc1cc2c(cc1OC)C(C[C@H]1CN(C(=O)c3ccccc3)CC[C@H]1CC(=O)O)=NCC2	inconclusive [inhibitor, single point]	–	–
Cn1cc(-c2ccc(F)c(Cl)c2)c2nc(CN3CC[S+](=O)([O-])CC3)cn2c1=O	inconclusive [inhibitor, single point]	–	–
O=C1CCN(C(=O)[C@@H]2CCCN2S(=O)(=O)c2ccccc2)CCCCCCN1	–	–	inactive
Cc1ncccc1OC1(C(=O)NCc2cn3c(n2)SCC3)CCNCC1	inconclusive [inhibitor, partial curve, poor fit]	–	–
O=C(Nc1ccc(F)cc1)N[C@H]1[C@H](O)[C@@H](Sc2ccccc2)[C@@H]2OC[C@H]1O2	inconclusive [inhibitor, partial curve, poor fit]	–	–
O=C(Cc1ccccc1Cl)NC1CCN(c2cc(-c3ccc(F)cc3)[nH]n2)C1 (centres undefined)	inconclusive [inhibitor, single point]	–	–
CCn1nccc1C(=O)N1CCC2(CC1)NC(=O)N(c1ccccc1)N2	inconclusive [inhibitor, partial curve]	–	–
O=c1c2c(CO)c(-c3ccccc3)nn2ccn1CCOc1ccccc1	inconclusive [inhibitor, full curve]	–	–
COc1cccc(-c2ccc(CN3C4CCC3CN(C(=O)c3ccncc3)C4)cc2)c1	–	inactive: -8.81%	–
CC1(C(=O)NCCc2ccc(F)cc2)CCOCC1	–	–	inactive [at 88.5 µM]
COc1ccc(-c2cnc3n[nH]c(-c4sccc4C)c3n2)cc1OC	–	inactive: 1.97% [at 88.5 µM]	–
